The supplement of paper PMC4967469
By IC50 is meant the dose at which the fit gives 50% viability; a limit (>, <) means that the fit lies beyond the doses tested. AUC sums up the same curve from the lowest dose to the 256-fold higher top dose: 1 means no effect, lower means more sensitive. For some of these results: A top dose marked as inferred comes from the curve model; the source does not state it. For some of these results: Where an entry number is given, a second screen of the drug exists; the two often differ.

What was measured:
Experiment in all cases: Viability of human cancer cell lines after 72 h of drug (GDSC screen)
JNJ-26854165 = compound: c1ccc2c(CCNc3ccc(Nc4ccncc4)cc3)c[nH]c2c1 [JNJ-26854165]; conditions: top dose 10 µM
Experimental: (§1)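 Human cancer cell lines in 384-well plates, medium with 10% serum, drug for 72 h over a 256-fold dose range (nine 2-fold or five 4-fold steps up to the top dose). Adherent lines were fixed and stained with the nucleic acid dye Syto60, suspension lines read with resazurin; signal relative to control wells, capped at 0 and 100%. One two-parameter sigmoid per drug and line, fitted in a mixed model over all curves with the slope shared within a line.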

PHA-665752 = compound: Cc1[nH]c(/C=C2\C(=O)Nc3ccc(S(=O)(=O)Cc4c(Cl)cccc4Cl)cc32)c(C)c1C(=O)N1CCC[C@@H]1CN1CCCC1 [PHA-665752]; conditions: top dose 2 µM
Experimental: as §1

JQ1 = compound: Cc1sc2c(c1C)C(c1ccc(Cl)cc1)=N[C@@H](CC(=O)OC(C)(C)C)c1nnc(C)n1-2 [JQ1]
Experimental: as §1

AMG-706 = compound: CC1(C)CNc2cc(NC(=O)c3cccnc3NCc3ccncc3)ccc21 [AMG-706]; conditions: top dose 2 µM; top dose inferred
Experimental: as §1

YM155 = compound: COCC[n+]1c2c(n(Cc3cnccn3)c1C)C(=O)c1ccccc1C2=O [YM155]; conditions: top dose 5.12 µM
Experimental: as §1

Belinostat = compound: O=C(/C=C/c1cccc(S(=O)(=O)Nc2ccccc2)c1)NO [Belinostat]; conditions: top dose 20 µM; top dose inferred
Experimental: as §1

NSC-207895 = compound: CN1CCN(c2ccc([N+](=O)[O-])c3no[n+]([O-])c23)CC1 [NSC-207895]; conditions: top dose 20 µM; top dose inferred
Experimental: as §1

Docetaxel = compound: CC(=O)O[C@@]12CO[C@@H]1C[C@H](O)[C@@]1(C)C(=O)[C@H](O)C3=C(C)[C@@H](OC(=O)[C@H](O)[C@@H](NC(=O)OC(C)(C)C)c4ccccc4)C[C@@](O)([C@@H](OC(=O)c4ccccc4)[C@H]21)C3(C)C [Docetaxel]; conditions: top dose 0.0125 µM
Experimental: as §1

CGP-60474 = compound: OCCCNc1cc(-c2ccnc(Nc3cccc(Cl)c3)n2)ccn1 [CGP-60474]; conditions: top dose 0.256 µM; top dose inferred
Experimental: as §1

JNK Inhibitor VIII = compound: CCOc1nc(NC(=O)Cc2cc(OC)ccc2OC)cc(N)c1C#N [JNK Inhibitor VIII]; conditions: top dose 10 µM; top dose inferred
Experimental: as §1

NVP-TAE684 = compound: COc1cc(N2CCC(N3CCN(C)CC3)CC2)ccc1Nc1ncc(Cl)c(Nc2ccccc2S(=O)(=O)C(C)C)n1 [NVP-TAE684]; conditions: top dose 2 µM
Experimental: as §1

SB-715992 = compound: Cc1ccc(C(=O)N(CCCN)[C@@H](c2nc3cc(Cl)ccc3c(=O)n2Cc2ccccc2)C(C)C)cc1 [SB-715992]; conditions: top dose 0.128 µM; top dose inferred
Experimental: as §1

FTI-277 = compound: COC(=O)[C@H](CCSC)NC(=O)c1ccc(NC[C@@H](N)CS)cc1-c1ccccc1 [FTI-277]; conditions: top dose 1.024 µM; top dose inferred
Experimental: as §1

OSI-906 = compound: C[C@]1(O)C[C@@H](c2nc(-c3ccc4ccc(-c5ccccc5)nc4c3)c3c(N)nccn32)C1 [OSI-906]; conditions: top dose 2.56 µM; top dose inferred
Experimental: as §1

Cyclopamine = compound: CC1=C2C[C@H]3[C@@H](CC=C4C[C@@H](O)CC[C@@]43C)[C@@H]2CC[C@]12O[C@@H]1C[C@H](C)CN[C@H]1[C@H]2C [Cyclopamine]; conditions: top dose 16 µM; top dose inferred
Experimental: as §1

[1] = top dose 1 µM, screen: GDSC drug entry 1218, top dose inferred
[2] = top dose 2.56 µM, screen: GDSC drug entry 163

Row | Cell Line | AUC (JNJ-26854165) | IC50 (JNJ-26854165) | AUC (PHA-665752) | IC50 (PHA-665752) | AUC (JQ1; [1]) | IC50 (JQ1; [1]) | AUC (JQ1; [2]) | IC50 (JQ1; [2]) | AUC (AMG-706) | IC50 (AMG-706) | AUC (YM155) | IC50 (YM155) | AUC (Belinostat) | IC50 (Belinostat) | AUC (NSC-207895) | IC50 (NSC-207895) | AUC (Docetaxel) | IC50 (Docetaxel) | AUC (CGP-60474) | IC50 (CGP-60474) | AUC (JNK Inhibitor VIII) | IC50 (JNK Inhibitor VIII) | AUC (NVP-TAE684) | IC50 (NVP-TAE684) | AUC (SB-715992) | IC50 (SB-715992) | AUC (FTI-277) | IC50 (FTI-277) | AUC (OSI-906) | IC50 (OSI-906) | AUC (Cyclopamine) | IC50 (Cyclopamine)
1 | NB(TU)1-10 (neuroblastoma, adherent) | 0.976 | > 10000 nM | 0.975 | > 2000 nM | 0.992 | > 1000 nM | 0.521 | 181 nM | 0.993 | > 2000 nM | 0.728 | 1270 nM | 0.283 | 335 nM | 0.914 | > 20000 nM | 0.993 | > 12.5 nM | 0.762 | 80 nM | 0.986 | > 10000 nM | 0.592 | 216 nM | 0.977 | > 128 nM | 0.989 | > 1020 nM | 0.46 | 127 nM | 0.992 | > 16000 nM
2 | GDM-1 (acute myeloid leukaemia, suspension) | 0.951 | > 10000 nM | 0.883 | 1970 nM | 0.975 | > 1000 nM | 0.625 | 347 nM | 0.761 | 680 nM | 0.268 | 72.1 nM | 0.249 | 247 nM | 0.873 | 17900 nM | 0.984 | > 12.5 nM | 0.651 | 41 nM | 0.985 | > 10000 nM | 0.379 | 59 nM | 0.635 | 18.5 nM | 0.976 | > 1020 nM | 0.488 | 149 nM | 0.956 | > 16000 nM
3 | COLO-320-HSR (large intestine, suspension) | 0.964 | > 10000 nM | 0.978 | > 2000 nM | 0.991 | > 1000 nM | 0.847 | 1530 nM | 0.991 | > 2000 nM | 0.94 | > 5120 nM | 0.397 | 678 nM | 0.98 | > 20000 nM | 0.992 | > 12.5 nM | 0.663 | 42.3 nM | 0.992 | > 10000 nM | 0.594 | 218 nM | 0.903 | > 128 nM | 0.989 | > 1020 nM | 0.695 | 519 nM | 0.983 | > 16000 nM
4 | ES8 (Ewing sarcoma, adherent) | 0.766 | 3430 nM | 0.98 | > 2000 nM | 0.977 | > 1000 nM | 0.575 | 252 nM | 0.933 | > 2000 nM | 0.027 | < 20 nM | 0.215 | 198 nM | 0.988 | > 20000 nM | 0.529 | 0.93 nM | 0.745 | 75.4 nM | 0.944 | > 10000 nM | 0.804 | 911 nM | 0.551 | 10.9 nM | 0.967 | > 1020 nM | 0.861 | 1920 nM | 0.967 | > 16000 nM
5 | L-363 (myeloma, suspension) | 0.801 | 4130 nM | 0.99 | > 2000 nM | 0.99 | > 1000 nM | 0.77 | 844 nM | 0.99 | > 2000 nM | 0.02 | < 20 nM | 0.339 | 479 nM | 0.911 | > 20000 nM | 0.869 | 8.98 nM | 0.643 | 37.4 nM | 0.989 | > 10000 nM | 0.812 | 893 nM | 0.585 | 13.2 nM | 0.99 | > 1020 nM | 0.815 | 1170 nM | 0.932 | > 16000 nM
6 | P30-OHK (lymphoblastic leukaemia, suspension) | 0.933 | > 10000 nM | 0.99 | > 2000 nM | 0.648 | 149 nM | 0.506 | 166 nM | 0.991 | > 2000 nM | 0.016 | < 20 nM | 0.112 | 97.7 nM | 0.907 | 19500 nM | 0.937 | > 12.5 nM | 0.953 | > 256 nM | 0.991 | > 10000 nM | 0.96 | > 2000 nM | 0.628 | 16.9 nM | 0.98 | > 1020 nM | 0.933 | > 2560 nM | 0.966 | > 16000 nM
7 | ALL-PO (lymphoblastic leukaemia, suspension) | 0.457 | 475 nM | 0.706 | 496 nM | 0.973 | > 1000 nM | 0.608 | 323 nM | 0.97 | > 2000 nM | 0.06 | < 20 nM | 0.113 | < 78.1 nM | 0.735 | 6120 nM | 0.832 | 8.66 nM | 0.729 | 75.1 nM | 0.91 | > 10000 nM | 0.603 | – | 0.736 | 39.6 nM | 0.971 | > 1020 nM | 0.889 | > 2560 nM | 0.812 | 9200 nM
